In publication PMC4336329 (PLoS ONE, 2015):
The campaign covered roughly 310,000 compounds. About 2,200 (0.71%) showed an effect of 50% or more. The effect is printed as a negative number. Some of the results follow.

target: human ether-à-go-go-related gene (hERG) potassium channel (human, UniProt Q12809); assay: primary screen, population patch clamp on CHO cells stably expressing hERG
Sequence (Q12809 whole entry, looked up): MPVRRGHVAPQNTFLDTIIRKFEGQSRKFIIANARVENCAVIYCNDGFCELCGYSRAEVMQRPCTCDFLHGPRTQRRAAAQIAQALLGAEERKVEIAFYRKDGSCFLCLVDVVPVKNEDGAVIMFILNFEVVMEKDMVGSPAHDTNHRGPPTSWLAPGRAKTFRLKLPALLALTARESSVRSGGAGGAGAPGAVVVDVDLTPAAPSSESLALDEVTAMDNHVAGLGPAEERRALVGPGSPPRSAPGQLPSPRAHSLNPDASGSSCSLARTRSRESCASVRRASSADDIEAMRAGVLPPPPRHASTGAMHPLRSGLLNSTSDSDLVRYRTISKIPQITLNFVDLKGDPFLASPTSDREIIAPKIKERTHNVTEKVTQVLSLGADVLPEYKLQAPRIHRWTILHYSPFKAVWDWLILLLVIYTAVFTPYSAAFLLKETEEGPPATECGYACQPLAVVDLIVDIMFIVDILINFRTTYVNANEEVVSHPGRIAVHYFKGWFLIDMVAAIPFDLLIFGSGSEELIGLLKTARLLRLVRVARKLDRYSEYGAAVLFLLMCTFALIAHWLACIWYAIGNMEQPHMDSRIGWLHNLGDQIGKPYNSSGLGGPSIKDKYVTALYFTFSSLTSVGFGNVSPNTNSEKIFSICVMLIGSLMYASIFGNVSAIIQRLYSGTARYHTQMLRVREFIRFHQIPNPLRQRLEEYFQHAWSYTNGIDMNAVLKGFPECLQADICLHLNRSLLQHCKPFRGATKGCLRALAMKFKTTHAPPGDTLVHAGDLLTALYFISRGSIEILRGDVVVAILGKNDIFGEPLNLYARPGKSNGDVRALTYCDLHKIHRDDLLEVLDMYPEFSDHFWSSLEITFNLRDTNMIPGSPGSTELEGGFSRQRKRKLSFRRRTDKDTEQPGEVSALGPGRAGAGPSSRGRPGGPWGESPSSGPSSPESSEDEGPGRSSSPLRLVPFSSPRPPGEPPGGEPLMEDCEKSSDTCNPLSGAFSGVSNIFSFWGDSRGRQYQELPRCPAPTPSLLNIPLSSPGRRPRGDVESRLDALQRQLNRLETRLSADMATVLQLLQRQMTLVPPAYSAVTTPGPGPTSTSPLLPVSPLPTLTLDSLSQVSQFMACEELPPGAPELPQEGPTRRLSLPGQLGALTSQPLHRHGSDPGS

Compound | hERG current change (%, negative = inhibition) at 1uM [%]
COc1ccc(NS(=O)(=O)c2cccc(C(=O)NNC(=O)c3cc(S(N)(=O)=O)ccc3OC)c2)cc1 | -8.24
O=S(=O)(NC(=NCCc1ccc(Cl)cc1)c1ccccc1Cl)c1cccs1 | -4.53
Cc1ccc(C(=O)CN2C(=O)NC3(CCOc4ccccc43)C2=O)s1 (centres unmarked) | 2.46
Cc1ccc(NC(=O)C2CCN(S(=O)(=O)c3ccccc3)CC2)cc1 | 9.45
COc1ccc(C(=O)N2CC(=O)Nc3ccccc32)cc1S(=O)(=O)N1CCOCC1 | 11.5
COC(=O)C1=C(C)N(C)C(=O)NC1c1ccccc1 (centres unmarked) | -1.56
CCC(C)(C)C1CCc2c(sc(NC(=O)c3ccoc3C)c2C(N)=O)C1 (centres unmarked) | 15.3
COc1ccc(-n2c(=O)c(CCC(=O)N(C)Cc3ccccc3C)nc3ccccc32)cc1 | 1.09
C=C1CCN([C@H](C(=O)NCc2cc(OC)c(OC)c(OC)c2)C(C)C)S(=O)(=O)c2ccccc21 | 5.44
COc1ccc(NC(=O)CN2CCN(CC(=O)Nc3ccccc3F)CC2)c(OC)c1 | -19.6
COc1cc(/C=N/NC2=NC(C)(C)Cc3ccccc32)cc(OC)c1OC | 9.85
CCOc1ccc(NC(=O)c2c3c(nc4ccccc24)CCC3)cc1 | 10.9
Cc1sc(NC(=O)CSc2nnnn2C2CCCC2)c(C#N)c1C | 3.2
CN(C)CCNc1oc(-c2ccccc2F)nc1C#N | -2.49
Cc1ccc(C2C(C(=O)O)c3ccccc3C(=O)N2C)c(C)c1 (centres unmarked) | -5.66
COc1ccc2nc(NCCNC(=S)NCCCN3CCOCC3)c(C#N)cc2c1 | 9.15
O=S(=O)(NCc1ccccc1)c1cccs1 | 9.54
CC(CCc1ccccc1)NC(=O)N1CCOCC1 (centres unmarked) | 0.544
COc1ccc(-c2cc(=O)c3ccccc3[nH]2)cc1 | 10.1
NC(=O)NCc1cccc(Cl)c1 | 9.96
CCc1c(O)nc(SCC(=O)Nc2ccccc2C)[nH]c1=O | 9.34
O=C(Nc1ccccc1C(=O)O)c1ccc(NC(=O)c2ccc(Br)o2)cc1 | 17

Compound | hERG current change (%, negative = inhibition) at 1uM [%]
O=C1C=C(N2CCN(C(=O)c3ccccc3)CC2)C2(CCCCC2)O1 | -1.92
CC1=NN(S(=O)(=O)c2ccc(Cl)cc2Cl)C(=O)c2ccccc2O1 | 10.2
Cc1ccc(NC(=O)[C@H](C)NC(=O)C2CCN(C(=O)[C@@H](N)C(C)C)CC2)cc1 | 11.9
COc1ccc(NC2CCCN(C(=O)c3cn(C)c4ccccc34)C2)cc1 (centres unmarked) | 19.3
O=C1CN(c2nc3nonc3nc2N2CCCCC2)CCN1 | 9.69
CCNC(=S)NNC(=O)c1cc(C2CC2)nc2ccccc12 | -6.45
O=C1CC2(CCN(C(=O)COc3ccccc3)CC2)Oc2ccccc21 | -21.4
O=C(Cc1ccccc1)NCCn1ccc2ccccc21 | 6.68
Cc1ccc(C)c(NC(=O)C2CCCN(c3cnccn3)C2)c1 (centres unmarked) | 3.15
C#CCNC(=O)C1=C[C@@H](c2cn(C(C)=O)c3ccccc23)C[C@@H](OCCCCO)O1 | -13.8
CC(=O)Nc1ccc(NCC(O)COc2ccccc2)cc1.Cl (centres unmarked) | -7.4
COc1cc(CNCCc2c[nH]c3ccccc23)ccc1OCc1ccccc1F.Cl | -4.68
O=C(O)CCCn1nc(C(F)(F)F)c2c1CCCCC2 | 1.68
O=C(CSc1nc2ccccc2c(=O)n1-c1ccc(F)cc1)Nc1ccc(Cl)c(S(=O)(=O)N2CCOCC2)c1 | 7.78
CCCCCc1ccc(-c2ccc(OCC)cc2)nc1 | -1.27
CSc1ccccc1-n1nnnc1SCC(=O)Nc1cc(C)ccc1C | 6.15
COC(=O)c1nc2ccccn2c1F | 13.8
Cn1nc(C(=O)Nc2nc3ccccc3[nH]2)ccc1=O | 7.15
CCOC(=O)c1ccc(S(=O)(=O)Nc2ccc3cn[nH]c3c2)cc1 | 0.571
S=C1N(c2ccccc2)C(c2ccc(Br)cc2)N2CCCN12 (centres unmarked) | 11.6
COC(=O)[C@H](CCSC)NC(=O)NCCC1=CCCCC1 | 1.7
Cc1cccc(/C=N/NC(=O)c2cc3c(s2)-c2ccccc2CC3)c1 | 12.7
